{"source": "PubChem BioAssay AID1345083", "about": "(National Center for Advancing Translational Sciences (NCATS), 2018)", "note": "“And” between values parts separate entries of the source, which are not always exact repeats. Equal values may be shown once. The campaign covered roughly 94,000 compounds. About 6,200 (6.6%) were called active. This list was built around the results that the source calls inconclusive (neither active nor inactive); the mix of calls is not that of the screen. Calls come from the whole dose curve; as a rule, active = well fitted inhibition curve with a large enough effect; inconclusive = small, poorly fitted or top-dose-only effect; inactive = flat fitted curve, though single readings scatter. Potencies beside an inconclusive call are fits to weak or partial responses and may not hold up. % is set by controls: 0 for no effect and ±100 for the full control effect; potency is the fitted concentration of half-maximal effect; tags give direction and shape of the fitted curve."}
{"assay": "Cytotoxic Profiling in HEK 293 Cell Line of Diverse Libraries Using Quantitative High-Throughput Screening; note: nearly all actives have a fitted effect of over 60% in size", "details": "HEK 293 viability, ATP luminescence (CellTiter-Glo), 48-72 h; activity change, negative = cytotoxicity: at 115 µM (top of the series) unless noted; series mostly up to 115 µM", "outline": "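CellTiter-Glo luminescence (cellular ATP) was read after 48 or 72 hr of compound exposure at 37 degree Celsius. Cells were HEK 293 plated at 250 cells/well.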"}
{"smiles": "CC(C)(C)c1coc([C@@H]2COCCN2Cc2ccccc2F)n1", "activity change, negative = cytotoxicity": "inactive: -5.18% [at 172 µM]"}
{"smiles": "Cc1nc(C)c(C(=O)N2CCOc3ccc(CN4CCCCC4)cc3C2)s1", "Potency": "inconclusive: 50.1 µM [inhibitor, partial curve, poor fit]"}
{"smiles": "O=C(NCCN1CCOCC1)c1ccc2nc(-c3ccccc3)cn2c1", "activity change, negative = cytotoxicity": "inactive: -8.23%"}
{"smiles": "Brc1ccc(CN2CCC(c3nc4ccncc4[nH]3)C2)cc1", "note": "(stereo unspecified)", "Potency": "inconclusive: 11.2 µM [inhibitor, partial curve, poor fit] and inconclusive: 35.5 µM [inhibitor, partial curve, poor fit]"}
{"smiles": "CCNC(=O)N1CC2=CC(C)(C)COc3ccc(OC)c(c32)C1", "Potency": "inconclusive: 89.1 µM [inhibitor, single point]"}
{"smiles": "Cc1noc(C)c1CN1CCc2nc(C(=O)Nc3cccc(C(F)(F)F)c3)oc2CC1", "Potency": "inconclusive: 44.7 µM [inhibitor, partial curve, poor fit]"}
{"smiles": "CN(C)C1CCN(Cc2cc3cc4c(cc3nc2-c2ccc(Cl)cc2)OCO4)C1", "note": "(stereo unspecified)", "Potency": "inconclusive: 56.2 µM [inhibitor, partial curve, poor fit]"}
{"smiles": "O=C1[C@H]2CN(Cc3ccc(OC(F)(F)F)cc3)C[C@H]2C(=O)N1Cc1ccc2c(c1)OCO2", "Potency": "inconclusive: 50.1 µM [inhibitor, partial curve, poor fit]"}
{"smiles": "O=C1CO[C@H]2CCN(CCCc3ccccc3)CC[C@@H]2N1c1ccccc1", "Potency": "active: 100 µM"}
{"smiles": "CCn1cnnc1-c1nn(C)c2c1CN(C(=O)Cc1cccc(F)c1)CC2", "outcome": "inactive"}
{"smiles": "COc1cccc(CNC2(Cc3cc(-c4ccc(F)cc4)on3)COC2)c1", "Potency": "inconclusive: 112 µM [inhibitor, partial curve]"}
{"smiles": "O=C(NC1CCCC1)C1CCCN1c1nccc(Nc2ccccc2F)n1", "note": "(stereo unspecified)", "Potency": "inconclusive: 63.1 µM [inhibitor, partial curve, poor fit]"}
{"smiles": "N#CC1CCN(C(=O)c2nc(-c3cc(Cl)cc(Cl)c3)c3ccccn23)CC1", "Potency": "active: 25.1 µM"}
{"smiles": "O=C(c1ccco1)N1CCC2(CC1)CN(Cc1ccccc1)CC2CO", "note": "(stereo unspecified)", "Potency": "inconclusive: 79.4 µM [inhibitor, partial curve]"}
{"smiles": "COCc1nc2nc(-c3ccccc3)c(Nc3ccc(F)cc3)cc2n1C", "Potency": "inconclusive: 89.1 µM [inhibitor, partial curve]"}
{"smiles": "CC(C)(C)CC(=O)NCCc1noc(-c2ccccc2)n1", "activity change, negative = cytotoxicity": "inactive: -8.81%"}
{"smiles": "O=C1Nc2ccccc2OCC12CCN([S+](=O)([O-])c1cccs1)CC2", "Potency": "inconclusive: 79.4 µM [inhibitor, partial curve, poor fit]"}
{"smiles": "CNC(=O)c1cc(C2CC2)nc2c1c(C1CCN(C(=O)c3ccccn3)C1)nn2C", "note": "(stereo unspecified)", "activity change, negative = cytotoxicity": "inactive: -20.9%"}
{"smiles": "COc1ccc(-c2cccc(C(=O)N3CCN(C(=O)c4ccc(C)cc4)CC3)c2)nn1", "Potency": "inconclusive: 50.1 µM [inhibitor, partial curve, poor fit]"}
{"smiles": "CC(=O)N1Cc2ccccc2CC2(CCN(CC3CCOCC3)C2)C1", "note": "(stereo unspecified)", "Potency": "inconclusive: 63.1 µM [inhibitor, partial curve, poor fit]"}
{"smiles": "O=C(O)c1ccc(CN2Cc3[nH]cnc3C[C@H]2c2nc(-c3ccncc3)no2)cc1", "activity change, negative = cytotoxicity": "inactive: -13.6% [at 172 µM]"}
{"smiles": "COCCCNC(=O)C1CCCN(c2nccc(Nc3ccccc3OC)n2)C1", "note": "(stereo unspecified)", "activity change, negative = cytotoxicity": "inactive: -14.8%"}
{"smiles": "Cn1c(CCNC(=O)C2CC(=O)N(c3n[nH]c4ccccc34)C2)nc2ccccc21", "note": "(stereo unspecified)", "activity change, negative = cytotoxicity": "inactive: -2.3%"}
{"smiles": "CC(=O)N1CCN(c2nc3c(s2)CC(C(=O)NCc2ccc(C(C)C)cc2)CC3)CC1", "note": "(stereo unspecified)", "Potency": "active: 44.7 µM"}
{"smiles": "COc1ccc(OCC(=O)Nc2ncc(-c3ccc(OC)nc3)c3c2OCC3)cc1", "Potency": "inconclusive: 112 µM [inhibitor, single point]"}
{"smiles": "Cc1noc(-c2cccs2)c1C(=O)NCCCCc1ccccc1", "Potency": "inconclusive: 63.1 µM [inhibitor, partial curve, poor fit]"}
{"smiles": "CCCCCC(=O)N[C@H]1C[C@@H](Cc2cc(COC(=O)CCCCC)on2)C1(C)C", "Potency": "inconclusive: 126 µM [inhibitor, single point]"}
{"smiles": "Cc1ccc(C2Cn3nnc(C(=O)N4CCN(C(=O)c5ccccc5)CC4)c3CO2)cc1", "note": "(stereo unspecified)", "Potency": "inconclusive: 44.7 µM [inhibitor, partial curve, poor fit]"}
{"smiles": "CCOc1ccc(-c2ccnc(N3CCC(NC(C)=O)CC3)n2)cc1C(=O)O", "Potency": "inconclusive: 100 µM [inhibitor, single point]"}
{"smiles": "Cc1nnc(NC(=O)NC2CCN(Cc3ccccc3)CC2)s1", "activity change, negative = cytotoxicity": "inactive: -24.7%"}
{"smiles": "CN1C[C@@H](NC(=O)c2ccc(C#N)cc2)C[C@H]1c1nc(-c2cncnc2)no1", "Potency": "inconclusive: 126 µM [inhibitor, single point]"}
{"smiles": "NCc1ccccc1-c1cccc(C(F)(F)F)c1", "Potency": "inconclusive: 50.1 µM [inhibitor, partial curve, poor fit]"}
{"smiles": "CCNC(=O)N1CCCC1c1noc(CCC(=O)NCc2cc(F)cc(F)c2)n1", "note": "(stereo unspecified)", "activity change, negative = cytotoxicity": "inactive: 11.7%"}
{"smiles": "Cc1ccsc1C(=O)N1CCC(Oc2ccccc2)C1", "note": "(stereo unspecified)", "Potency": "inconclusive: 50.1 µM [inhibitor, partial curve, poor fit]"}
{"smiles": "O=C(NC1CCCc2c1[nH]c1ccccc21)c1ccccc1", "note": "(stereo unspecified)", "Potency": "inconclusive: 10 µM [inhibitor, full curve, poor fit]"}
{"smiles": "O=C(c1cccc(O)c1)N1CCNc2cnc(Nc3cccc(F)c3)nc2C1", "Potency": "active: 100 µM"}
{"smiles": "CN(Cc1ccccc1)C(=O)Cc1cccn1-c1ccc(F)cc1", "Potency": "inconclusive: 89.1 µM [inhibitor, single point]"}
{"smiles": "COc1ccc(-c2cccc(C(=O)N3CCC(NC(=O)C4CCCC4)CC3)c2)nn1", "activity change, negative = cytotoxicity": "inactive: -14.4%"}
{"smiles": "O=C(c1ccc2c(c1)OCO2)N1CCC2(CC1)N(Cc1ccccc1)C(=O)CS2(=O)=O", "activity change, negative = cytotoxicity": "inactive: 1.48%"}
{"smiles": "CCOc1ccc(CN2CCOc3ccc(C(=O)NCc4ccccc4F)cc3C2)cc1", "Potency": "active: 39.8 µM"}
{"smiles": "CN(CCc1ccccc1)[C@@H]1[C@H](O)[C@H](CO)O[C@@H]1CNC(=O)c1cccc(F)c1", "activity change, negative = cytotoxicity": "inactive: -15.3%"}
{"smiles": "CCN(CC)Cc1ccc2c(c1)CN(C(=O)NCC(C)C)CCO2", "activity change, negative = cytotoxicity": "inactive: -17.9%"}
{"smiles": "CCn1ccc(C(=O)N2CCC(CCOc3ccccc3F)C2)n1", "note": "(stereo unspecified)", "Potency": "inconclusive: 56.2 µM [inhibitor, partial curve, poor fit]"}
{"smiles": "COc1ccc(-c2noc(CC3CCN(C(=O)c4ccc5c(c4)OCO5)CC3)n2)cc1", "Potency": "inconclusive: 44.7 µM [inhibitor, partial curve, poor fit]"}
{"smiles": "CCC(CC)C(=O)N1CCC2(CCc3nn(CCOC)c(=O)n3CC2)CC1", "outcome": "inactive"}
{"smiles": "CC(C)CCN1C[C@@H]2C[C@H]1C(=O)N(Cc1cccnc1)c1ccccc1O2", "Potency": "inconclusive: 70.8 µM [inhibitor, full curve, poor fit]"}
{"smiles": "COCCNC(=O)c1cc(-c2ccc(OC)cc2)nc2c1c(C)nn2-c1ccccc1", "Potency": "inconclusive: 79.4 µM [inhibitor, partial curve, poor fit]"}
{"smiles": "CN(C)C[C@@H]1CN(Cc2cccnc2)C[C@H]1NC(=O)Cc1ccsc1", "Potency": "inconclusive: 89.1 µM [inhibitor, partial curve, poor fit]"}
{"smiles": "COC(=O)c1cccc(NC(=O)c2ccc3c(c2)N(C)C2CCCCCN2C3=O)c1", "note": "(stereo unspecified)", "Potency": "inconclusive: 39.8 µM [inhibitor, partial curve, poor fit]"}
{"smiles": "CCN1CCN(c2nc3c(s2)CN(C(=O)c2ccncc2)CC3)CC1", "Potency": "inconclusive: 79.4 µM [inhibitor, single point]"}
{"smiles": "C[C@@]1(O)CCN(Cc2ccccc2F)C[C@H]1N1CCCC1", "Potency": "inconclusive: 28.2 µM [inhibitor, full curve]"}
{"smiles": "O=C(Nc1ccc(F)cc1F)N[C@H]1[C@H]2CCO[C@H]2[C@@H]1N1CCCCC1", "Potency": "inconclusive: 22.4 µM [inhibitor, partial curve, poor fit]"}
{"smiles": "COCCN1C(=O)c2ccccc2C(C(=O)Nc2ccccc2C)C12CCCCC2", "note": "(stereo unspecified)", "activity change, negative = cytotoxicity": "inactive: -26.1%"}
{"smiles": "Cn1ncc(N2CCCC(C(=O)NCCCc3ccccc3)C2)cc1=O", "note": "(stereo unspecified)", "Potency": "inconclusive: 56.2 µM [inhibitor, partial curve, poor fit]"}
{"smiles": "COC(=O)CNC(=O)C1CCN(Cc2ccccc2-c2ccc(C)c(Cl)c2)CC1", "activity change, negative = cytotoxicity": "inactive: -22.1%"}
{"smiles": "COc1ccc(N2CC(c3noc(-c4cccc(F)c4)n3)CC2=O)cc1", "note": "(stereo unspecified)", "Potency": "inconclusive: 89.1 µM [inhibitor, single point]"}
{"smiles": "Cc1nnc2ccc(N3CCCN(C(=O)c4cccc(Cl)c4)CC3)nn12", "outcome": "inactive"}
{"smiles": "O=C(NCc1cccs1)c1cc(-c2cccc(C(F)(F)F)c2)c2nncn2n1", "Potency": "inconclusive: 2.51 µM [inhibitor, full curve, poor fit]"}
{"smiles": "Cc1ccccc1NCc1nc2c(n1Cc1ccccc1)C(=O)N(CCOc1ccccc1)CCN2", "Potency": "inconclusive: 39.8 µM [inhibitor, full curve, poor fit]"}
{"smiles": "CCOC(=O)N1CCC(N2CCCC(CCC(=O)Nc3ccc(OC)c(Cl)c3)C2)CC1", "note": "(stereo unspecified)", "Potency": "inconclusive: 89.1 µM [inhibitor, single point]"}
{"smiles": "COc1cccc(Nc2ncc3c(n2)C(C)(C(=O)N2CCN(c4ccccn4)CC2)CC3)c1", "note": "(stereo unspecified)", "Potency": "inconclusive: 70.8 µM [inhibitor, partial curve, poor fit]"}
{"smiles": "O=C(c1nccs1)c1cccnc1N1CCNCC(O)C1", "note": "(stereo unspecified)", "activity change, negative = cytotoxicity": "inactive: -10.4%"}
{"smiles": "CCN(CC)C(=O)c1cc2c(n1C)CCN(Cc1ccc(F)cc1)C2", "activity change, negative = cytotoxicity": "inactive: -8.05%"}
{"smiles": "N#Cc1ccc(CN2C[C@@H]3C[C@H]2C(=O)N(Cc2ccccc2)c2ccccc2O3)cc1", "Potency": "active: 50.1 µM"}
{"smiles": "CCC1Oc2ccc(NC(=O)Cc3ccc(OC)cc3)cc2CN(Cc2ccc(OC)cc2)C1=O", "note": "(stereo unspecified)", "Potency": "inconclusive: 8.91 µM [inhibitor, full curve, poor fit]"}
{"smiles": "COc1ccc(C(=O)N2CC(Oc3ccc(F)c(F)c3)C2)cc1", "Potency": "inconclusive: 100 µM [inhibitor, single point]"}
